Measurements as given in article PMC10850145, “Hormonal steroids induce multidrug resistance and stress response genes in Neisseria gonorrhoeae by binding to MtrR” (Nature Communications, 2024).
Where “and” joins values, the source holds several entries; their conditions need not be identical. Identical values can stand only once. Like-named read-outs stand apart in the source and are kept apart here. The source gives many values for each of these; only a part stands here.

Tested on: mtrC-lacZ expression
Format: cell-based, Neisseria gonorrhoeae
Details: for Miller units: mtrC-lacZ; for β-galactosidase activity, Miller units (single replicate): ΔmtrR + mtrR WT in trans, first data set (c15-c36)
[1] = ΔmtrR + mtrR D171A in trans, 6.25 µM hormone, single replicate
[2] = ΔmtrR + mtrR D171A in trans, 12.5 µM hormone, single replicate
[3] = ΔmtrR + mtrR D171A in trans, 25 µM hormone, single replicate
[4] = ΔmtrR + mtrR D171A in trans, 50 µM hormone, single replicate

Q: Which results are given for `C[C@]12CC[C@H]3[C@@H](CCC4=CC(=O)CC[C@@]43C)[C@@H]1CC[C@@H]2O` [Testosterone, testosterone]?
A: Miller units (WT, 6.25 µM hormone, single replicate (plate data)): 164 Miller units and 134 Miller units and 127 Miller units and 139 Miller units; Miller units (WT, 12.5 µM hormone, single replicate (plate data)): 186 Miller units and 164 Miller units and 155 Miller units and 161 Miller units; Miller units (WT, 25 µM hormone, single replicate (plate data)): 189 Miller units and 186 Miller units and 165 Miller units and 170 Miller units; Miller units (WT, 50 µM hormone, single replicate (plate data)): 222 Miller units and 215 Miller units and 166 Miller units and 177 Miller units; Miller units [1]: 167 Miller units and 161 Miller units and 191 Miller units; Miller units [2]: 177 Miller units and 161 Miller units and 186 Miller units; Miller units [3]: 179 Miller units and 168 Miller units and 147 Miller units; Miller units [4]: 158 Miller units and 156 Miller units; Miller units (ΔmtrR, 6.25 µM hormone, single replicate (plate data)): 276 Miller units and 252 Miller units and 246 Miller units and 285 Miller units; Miller units (ΔmtrR, 12.5 µM hormone, single replicate (plate data)): 296 Miller units and 248 Miller units and 237 Miller units and 196 Miller units; Miller units (ΔmtrR, 25 µM hormone, single replicate (plate data)): 284 Miller units and 276 Miller units and 289 Miller units and 254 Miller units; Miller units (ΔmtrR, 50 µM hormone, single replicate (plate data)): 310 Miller units and 287 Miller units and 255 Miller units and 237 Miller units; β-galactosidase activity, Miller units (single replicate) (1 µM): 148 Miller units; β-galactosidase activity, Miller units (single replicate) (10 µM): 185 Miller units; β-galactosidase activity, Miller units (single replicate) (50 µM): 246 Miller units; β-galactosidase activity, Miller units (single replicate) (100 µM): 230 Miller units and 308 Miller units

Q: `CC(=O)[C@H]1CC[C@H]2[C@@H]3CCC4=CC(=O)CC[C@]4(C)[C@H]3CC[C@]12C` [Progesterone, progesterone] was tested. Which “β-galactosidase activity, Miller units (single replicate)” value (shortened to “β-galactosidase activity, Miller units”) (6.25 µM) did it give?
A: 103 Miller units

Q: What about the “β-galactosidase activity, Miller units” value (12.5 µM) of the same compound?
A: 130 Miller units

Q: What about the “β-galactosidase activity, Miller units” value (25 µM) of the same compound?
A: 126 Miller units and 121 Miller units

Q: What about the “β-galactosidase activity, Miller units” value (50 µM) of the same compound?
A: 150 Miller units and 160 Miller units

Q: What does the source list for `C[C@]12CC[C@@H]3c4ccc(O)cc4CC[C@H]3[C@@H]1CC[C@@H]2O` [β-Estradiol, β-estradiol]?
A: Miller units [1]: 147 Miller units and 135 Miller units; Miller units [2]: 195 Miller units and 119 Miller units; Miller units [3]: 132 Miller units and 171 Miller units; Miller units [4]: 188 Miller units and 124 Miller units and 146 Miller units; β-galactosidase activity, Miller units (single replicate) (6.25 µM): 110 Miller units; β-galactosidase activity, Miller units (single replicate) (12.5 µM): 110 Miller units and 145 Miller units; β-galactosidase activity, Miller units (single replicate) (25 µM): 131 Miller units and 160 Miller units; β-galactosidase activity, Miller units (single replicate) (50 µM): 138 Miller units and 154 Miller units
